The RNAGym collection of RNA variant scans (doi:10.1073/pnas.2313332121)
Variants at the background level are over-represented here.

B1: TPR 5TU (parent)
chain: GGAUCUUCUCGAUCUAACAAAAAAGACAAAUCUGCCACAAAGCUUGAGAGCAUCUUCGGAUGCAGAGGCGGCAGCCUUCGGUGGCGCGAUAGCGCCAACGUUCUCAACUAUGACACGCAAAACGCGUGCUCCGUUGAAUGGAGUUUAUCAUG

Variants of: B1
Experiment: polymerase ribozyme fitness, log enrichment relative to wild type (log ratio); higher = more active; in vitro selection for triplet polymerase activity
Summary of the method: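 For each subunit of a heterodimeric triplet polymerase ribozyme, a mutant library was built by PCR and transcribed, then taken through a single in vitro selection round in triplicate. Selection involved annealing to a biotinylated primer, the partner subunit and triplets, incubation frozen at −7 °C, gel excision of extended constructs, capture on streptavidin beads and RT-PCR. Genotypes were retained after Illumina sequencing of inputs and outputs only with ≥10 input reads and ≥1 read in each output. Fitness is defined as the logarithm of a genotype's enrichment relative to wild-type enrichment, using inverse-variance-weighted averages across replicates, with the logarithm taken to base 2.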

| Variant | polymerase ribozyme fitness (log ratio) |
| --- | --- |
| GGAUCUUCUCGAUCUAACAAAAAAGACAAAUCUGCCACACUGCUUGAGAGCAUCUUUGGAUGCAGAGGCGGCAGCCUUCGGUUGCGCGAUGGGGCCAACGUUCUCAACUAUGACACGCAAAACGCCUGCUCCGUUGAAUGGAGUUUAUCAUG [A40C A41U C57U G83U A91G C93G G126C] | ≤ -4.2 |
| GGAUCUUCUCGAUCUAACAAAAAAGACAAAUCUGCCACACUGCUUGAGAGCAUCUUCGGAUGCAGAGGCGGCAGCCUCCAGUGGUGCGAUAGCGCCAACGUUCUCAACUAUGACACGCAAAACGCGUGCUCCGUUGAAUGGAGUCUAUCAUG [A40C A41U U78C G80A C85U U145C] | ≤ -4.2 |
| GGAUCUUCUCGAUCUAACAAAAAAGACAAAUCUGCCACACAGCUUGAGAGUAUCUUAGGAUGCAGAGGCGGCAGCCUUCGGUGGCGCGAUAGCUCCAACGUUCUCAACUAUGAGACGCAAAACGCGUGCUCCGUUGAAUGGAGUUUAUCGUG [A40C C51U C57A G94U C114G A150G] | ≤ -4.2 |
| GGAUCUUCUCGAUCUAACAAAAAAGACAAAUCUGCCACACAGCUUGAGAGCAUCUUUGGAUGCAGAGGCGGCAGCCUUCGGUGGCGCGAUAGCGCCAACGUUCUCAACUAUGACACGCAAAACGCGUGCUCCGUUGAAUGGAGUUUAUCAUG [A40C C57U] | 0.521 |
| GGAUCUUCUCGAUCUAACAAAAAAGACAAAUCUGCCACACAGCUUGAGAGCAUCUUCGGAUGCAGAGGCGGCAGACUUCGGUGGCGCGAUAGCGCCAACGUUCUCAACUAUGAGACGCAAAACGCGUGCUCCGUUGAAUGGAGUUUAUCAUG [A40C C75A C114G] | ≤ -4.2 |
| GGAUCUUCUCGAUCUAACAAAAAAGACAAAUCUGCCACACAGCUUGAGAGCAUUUUCGGAUGCAGAGGCGGCAGCCUUCGGUGGCGCGAUAGCGCCAACGUUCUCAACUAUGACACGCAAAACGCGUGCUCCGUUGAAUGUAGUUUAUCAUG [A40C C54U G141U] | 0.7 |
| GGAUCUUCUCGAUCUAACAAAAAAGACAAAUCUGCCACACAGCUUGAGCGCAUCUUCGGAUGCAGAGGCGGCAGCCUUCGGUGGCGCGAUAGCGACAAUGUUCUUAAGUAUGACACGCAAAACGCGUGCUCCGUUGAAUGGAGUUUAUCAUG [A40C A49C C95A C99U C105U C108G] | ≤ -4.2 |
| GGAUCUUCUCGAUCUAACAAAAAAGACAAAUCUGCCACACUACUUGAGAGCAUCUUCGGAUGCAGAGGCGGCAGGCUUCGGUGGCGCGAUAGCCCCAACGUUCUCAACUAUGACACGCAAAACGCGUGCUCCGUUGAAUGGAGUUUAUCAUG [A40C A41U G42A C75G G94C] | ≤ -4.2 |
| GGAUCUUCUCGAUCUAACAAAAAAGACAAAUCUGCCACACAGCUUGAGAGCCUUUUCGGAUGCAGAGGCGGCAGCCUUCGGUGGCGCGAUAGUGCCAACGUUCUCAAGUAUGACACGUAAAACGCGUGCUCCGUUGAAUGGAGUUUAUCAUG [A40C A52C C54U C93U C108G C118U] | ≤ -4.2 |
| GGAUCUUCUCGAUCUAACAAAAAAGACAAAUCUGCCACACAGCUUGAGAGCAUAGUCGGAUGCAGAGGCGGCAGCCUUCGGUGGCGCGAUAGCGCCAGCGUUCUUAAUUAUGACACGCAAAACGCGUGCUCCGUUGAAUGGAGUUUAUCAUG [A40C C54A U55G A98G C105U C108U] | ≤ -4.2 |
| GGAUCUUCUCGAUCUAACAAAAAAGACAAAUCUGCCACACAGCUUGAGAGCAUCUUCGGAUGCAGAGGCGGCGGCCUUCGGUGGCGGGAUAGCGCAAACGUUCUCAACUAUGACACGUAAAACGCGUGCUCCGUUGACUGGAGUUUAUCAUG [A40C A73G C87G C96A C118U A138C] | ≤ -4.2 |
| GGAUCUUCUCGAUCUAACAAAAAAGACAAAUCUGCCACACAGCUUGAGAGCAUUUUCGGAUGCAGAGGCGGCAGCCUUCGGUGGCACGAUUGCGCCAACGGUCUCUACUAUGACACGCAAAACGCGUGCUCCGUUGAAUGGAGUUUAUCAUG [A40C C54U G86A A91U U101G A106U] | ≤ -4.2 |
| GGAUCUUCUCGAUCUAACAAAAAAGACAAAUCUGCCACACAGCUUGAGAGCAUCUUCGGAUGCAGAGGCGGCAGCUUUCGGUGGCGCGAUAGCGCCAACGUUCUCAACUAUGACACGCAAAACGCGUGCUCCGUUGAAUGGAGUUUAUCAUG [A40C C76U] | 0.0931 |
| GGAUCUUCUCGAUCUAACAAAAAAGACAAAUCUGCCACACAGCUUGAGAGCAUCUUCGGAUGCAGUGGCGGCAGCCUUCGGUGGCGCGAUAGCGACAACGUUCUCAACUAUGACACGCAAAACGCGUGCUCCGUUGAAUUGAGUUUAACAUU [A40C A66U C95A G140U U148A G152U] | ≤ -4.2 |
| GGAUCUUCUCGAUCUAACAAAAAAGACAAAUCUGCCACACAGCUUGAGAGCAUCUUCGGAUGCAGAGGCGGCAGCCUUCGGUGGCGCGAUAGCGCCAACGUUCUCAACUAUGUCACGUAAAACGCGUGCUCCGUUAAAUGGAGUUUAUCAUG [A40C A113U C118U G136A] | -2.68 |
| GGAUCUUCUCGAUCUAACAAAAAAGACAAAUCUGCCACACAGCUUGAGAGCAUCUUUGGAUGCAGAGGCGGCAGCCUUCGGUGGCGCGAUAGCGCCAACGUUCUCAACAAUGACACGCAAAACGCGUGCGCCGUUGAAUGGAGUUUAUCAUG [A40C C57U U109A U130G] | ≤ -4.2 |
| GGAUCUUCUCGAUCUAACAAAAAAGACAAAUCUGCCACACAGCUUGAGAGAAUCUUCGGAUGCAGAGGCGGCAGCCUUCGGUGGCCCGAUAGCGCCAACGUUCUCAACUAUGACACGCAAAACGCGUGCUCCGUUGAACGGAGUUUAUCAUG [A40C C51A G86C U139C] | ≤ -4.2 |
| GGAUCUUCUCGAUCUAACAAAAAAGACAAAUCUGCCACACAGCUUGAGAGCAUAUUCGGAUGCAGAGGCGGCAGCCUUCGGUGGCGCGUUAGCUCCAACGUUCUCAACUAUGACACGCAAAACGCGUGCUCCGUUGAAUGGAGUUUAUCAUG [A40C C54A A89U G94U] | -2.57 |
| GGAUCUUCUCGAUCUAACAAAAAAGACAAAUCUGCCACACAGCUUGCGAGCAUCUUCGGCUGCAGAGGCGUCAGCCUUCGGUGGCGCGAUCGUGCCAACGUUCUCAACUAUGACACGCAAAACGCGUGCUCCGUUGAAUGGAGUUUAUCAUG [A40C A47C A60C G71U A91C C93U] | ≤ -4.2 |
